Reference: patent US11959486B2, “Stable liquid formulation of AMG 416 (etelcalcetide)” (AMGEN INC., priority 2013, dated 2024)
At least one structure is not confirmed: it was looked up by name or label, or the drawing left a doubt.

Assay: Stability in buffered solutions at pH 2.25, 2.5, 3.0 and 3.5, RP-HPLC purity and degradants (Example 6)
Details: for purity: 5 mg/mL; for Acid 8.1 mins / Dimer 9.3 mins (increase) / Deacetyl 7.4 mins / Trisulfide 8.2 mins / Dimer Trisulfide 9.5: 67 days
Experimental: In this study, the stability of a liquid formulation of AMG 416 under low pH conditions was investigated. Succinate-buffered saline (10 mM, pH 3.5) was prepared by dissolving 59 mg of succinic acid in 45 ml of lab processed (deionized) water and adjusting the pH to 3.5 using 1N HCl and 1N NaOH as needed, and q.s. to 50 ml. In the same way, a 10 mM, pH 3.5 sodium lactate (56 mg/50 mL) buffer solution was prepared.
NaCl (90 mg) was added to one portion and mannitol (500 mg) was added to the other. Each 10 mL portion was split again into two equal 5 mL portions and the pH was adjusted to 2.25 and 3.5, respectively, with 1N HCl and 1N NaOH. In the same way, four 5 mL solutions were prepared using lactate buffer. 1.0 mL of each of the (eight) resulting solutions was added to 3 serum sample vials. In addition, the remaining pH 2.25, succinate-buffered AMG 416 solution containing NaCl was adjusted to pH 2.5 and 0.5 mL aliquots were added to 3 serum sample vials and the remaining pH 3.5 succinate buffered solution with NaCl was adjusted to pH 3.0 and 0.5 mL aliquots were added to 3 serum sample vials.
At each time point (0, 2, 8, 12 and 24 weeks) all 30 samples were retrieved from storage, equilibrated to room temperature (about 25° C.), and a 100 μL aliquot was diluted to 0.5 mg/mL with water for RP-HPLC analysis. The remaining samples were resealed and returned to their respective storage conditions.

[1] = pH 2.25, Temp 5, lactate, mannitol
[2] = pH 2.25, Temp 5, succinate, NaCl
[3] = pH 2.25, Temp 5, succinate, mannitol
[4] = pH 2.25, Temp 25, lactate, NaCl
[5] = pH 2.25, Temp 25, lactate, mannitol
[6] = pH 2.25, Temp 25, succinate, NaCl
[7] = pH 2.25, Temp 25, succinate, mannitol
[8] = pH 2.25, Temp 40, lactate, NaCl
[9] = pH 2.25, Temp 40, lactate, mannitol
[10] = pH 2.25, Temp 40, succinate, NaCl
[11] = pH 2.25, Temp 40, succinate, mannitol
[12] = pH 2.5, Temp 5, succinate, NaCl
[13] = pH 2.5, Temp 25, succinate, NaCl
[14] = pH 2.5, Temp 40, succinate, NaCl
[15] = pH 3.0, Temp 5, succinate, NaCl
[16] = pH 3.0, Temp 25, succinate, NaCl
[17] = pH 3.0, Temp 40, succinate, NaCl
[18] = pH 3.5, Temp 5, lactate, mannitol
[19] = pH 3.5, Temp 5, succinate, NaCl
[20] = pH 3.5, Temp 5, succinate, mannitol
[21] = pH 3.5, Temp 25, succinate, NaCl
[22] = pH 3.5, Temp 25, succinate, mannitol
[23] = pH 3.5, Temp 40, lactate, mannitol
[24] = pH 3.5, Temp 40, succinate, NaCl
[25] = pH 3.5, Temp 40, succinate, mannitol

SMILES: CC(=O)N[C@H](CSSC[C@H](N)C(=O)O)C(=O)N[C@H](C)C(=O)N[C@H](CCCNC(=N)N)C(=O)N[C@H](CCCNC(=N)N)C(=O)N[C@H](CCCNC(=N)N)C(=O)N[C@H](C)C(=O)N[C@H](CCCNC(=N)N)C(N)=O [AMG 416, N-acetyl-D-cysteinyl-D-alanyl-D-arginyl-D-arginyl-D-arginyl-D-alanyl-D-arginamide disulfide with L-cysteine]
- purity (pH 2.25, stored for 27 days at 40° C. (FIG. 5A)): 87.8%
- purity (pH 2.25, stored for 67 days at 40° C. (FIG. 5)): 87.8%
- purity (pH 3.5, 40° C., 67 days (FIG. 6)): 91.7%
- purity (pH 3.5, stored for 27 days at 40° C. (FIG. 6A)): 91.7%
- Acid 8.1 mins (pH 2.25, Temp 5, lactate, NaCl): 0.8 % total area
- Dimer 9.3 mins (increase) (pH 2.25, Temp 5, lactate, NaCl): 0.4 % total area
- Acid 8.1 mins [1]: 0.5 % total area
- Dimer 9.3 mins (increase) [1]: 0.6 % total area
- Acid 8.1 mins [2]: 0.8 % total area
- Dimer 9.3 mins (increase) [2]: 0.8 % total area
- Acid 8.1 mins [3]: 1.1 % total area
- Dimer 9.3 mins (increase) [3]: 0.1 % total area
- Acid 8.1 mins [4]: 2.5 % total area
- Deacetyl 7.4 mins [4]: 0.3 % total area
- Dimer 9.3 mins (increase) [4]: 0.3 % total area
- Trisulfide 8.2 mins [4]: 0.9 % total area
- Acid 8.1 mins [5]: 1.2 % total area
- Deacetyl 7.4 mins [5]: 0.3 % total area
- Dimer 9.3 mins (increase) [5]: 0.4 % total area
- Acid 8.1 mins [6]: 3.1 % total area
- Deacetyl 7.4 mins [6]: 0.4 % total area
- Dimer 9.3 mins (increase) [6]: 0.4 % total area
- Acid 8.1 mins [7]: 1.6 % total area
- Dimer 9.3 mins (increase) [7]: 0.9 % total area
- Acid 8.1 mins [8]: 13.9 % total area
- Deacetyl 7.4 mins [8]: 2.9 % total area
- Dimer 9.3 mins (increase) [8]: 0.4 % total area
- Dimer Trisulfide 9.5 [8]: 0.7 % total area
- Acid 8.1 mins [9]: 8.7 % total area
- Deacetyl 7.4 mins [9]: 2.0 % total area
- Dimer 9.3 mins (increase) [9]: 1.6 % total area
- Dimer Trisulfide 9.5 [9]: 0.6 % total area
- Trisulfide 8.2 mins [9]: 0.3 % total area
- Acid 8.1 mins [10]: 14.2 % total area
- Deacetyl 7.4 mins [10]: 3.1 % total area
- Dimer 9.3 mins (increase) [10]: 0.0 % total area
- Dimer Trisulfide 9.5 [10]: 0.2 % total area
- Acid 8.1 mins [11]: 8.9 % total area
- Deacetyl 7.4 mins [11]: 2.5 % total area
- Dimer 9.3 mins (increase) [11]: 2.4 % total area
- Dimer Trisulfide 9.5 [11]: 0.6 % total area
- Trisulfide 8.2 mins [11]: 0.3 % total area
- Acid 8.1 mins [12]: 0.5 % total area
- Dimer 9.3 mins (increase) [12]: 0.5 % total area
- Acid 8.1 mins [13]: 1.5 % total area
- Deacetyl 7.4 mins [13]: 0.4 % total area
- Dimer 9.3 mins (increase) [13]: 0.2 % total area
- Acid 8.1 mins [14]: 8.4 % total area
- Deacetyl 7.4 mins [14]: 1.9 % total area
- Dimer 9.3 mins (increase) [14]: 1.1 % total area
- Dimer Trisulfide 9.5 [14]: 0.4 % total area
- Deacetyl 7.4 mins [15]: 0.4 % total area
- Dimer 9.3 mins (increase) [15]: 0.2 % total area
- Deacetyl 7.4 mins [16]: 0.1 % total area
- Dimer 9.3 mins (increase) [16]: 1.3 % total area
- Acid 8.1 mins [17]: 2.4 % total area
- Deacetyl 7.4 mins [17]: 0.6 % total area
- Dimer 9.3 mins (increase) [17]: 5.5 % total area
- Dimer Trisulfide 9.5 [17]: 0.6 % total area
- Trisulfide 8.2 mins [17]: 0.5 % total area
- Dimer 9.3 mins (increase) (pH 3.5, Temp 5, lactate, NaCl): 0.1 % total area
- Acid 8.1 mins [18]: 1.2 % total area
- Dimer 9.3 mins (increase) [18]: 1.6 % total area
- Acid 8.1 mins [19]: 0.2 % total area
- Dimer 9.3 mins (increase) [19]: 0.1 % total area
- Acid 8.1 mins [20]: 0.7 % total area
- Dimer 9.3 mins (increase) [20]: −0.1 % total area
- Dimer 9.3 mins (increase) (pH 3.5, Temp 25, lactate, NaCl): 1.4 % total area
- Dimer 9.3 mins (increase) (pH 3.5, Temp 25, lactate, mannitol): 3.1 % total area
- Acid 8.1 mins [21]: 0.2 % total area
- Dimer 9.3 mins (increase) [21]: 1.8 % total area
- Deacetyl 7.4 mins [22]: 0.1 % total area
- Dimer 9.3 mins (increase) [22]: 2.1 % total area
- Acid 8.1 mins (pH 3.5, Temp 40, lactate, NaCl): 1.4 % total area
- Dimer 9.3 mins (increase) (pH 3.5, Temp 40, lactate, NaCl): 7.4 % total area
- Dimer Trisulfide 9.5 (pH 3.5, Temp 40, lactate, NaCl): 1.0 % total area
- Trisulfide 8.2 mins (pH 3.5, Temp 40, lactate, NaCl): 0.7 % total area
- Acid 8.1 mins [23]: 0.5 % total area
- Dimer 9.3 mins (increase) [23]: 17.0 % total area
- Dimer Trisulfide 9.5 [23]: 0.5 % total area
- Trisulfide 8.2 mins [23]: 1.0 % total area
- Acid 8.1 mins [24]: 1.0 % total area
- Deacetyl 7.4 mins [24]: 0.1 % total area
- Dimer 9.3 mins (increase) [24]: 8.1 % total area
- Dimer Trisulfide 9.5 [24]: 0.6 % total area
- Trisulfide 8.2 mins [24]: 0.6 % total area
- Acid 8.1 mins [25]: 1.0 % total area
- Dimer 9.3 mins (increase) [25]: 11.7 % total area
- Dimer Trisulfide 9.5 [25]: 0.7 % total area
- Trisulfide 8.2 mins [25]: 1.3 % total area
- dimer at time 0 in the lot used (time 0): 3.4%
